Assay [1] has as its target T1, Cynomolgus PDL1-His protein (Cynomolgus, UniProt G7PSE7 19-238).
T1 construct: also called PD-L1 (Cynomolgus) protein; Cynomolgus PDL1 protein
Kind of assay: ELISA, Cynomolgus PDL1-His coated 100 ng/well, anti-human IgG HRP.

Assay [2] deals with T2, recombinant protein PD-L1-His (human, UniProt Q9NZQ7 part only).
T2 construct: also called PD-L1-his fusion protein; human PDL1-his protein
The assay can be described thus: ELISA, human PDL1-his coated 200 ng/well. (An ELISA detects its analyte on a solid surface through an enzyme-linked reagent.)

Assay [3] deals with T2, recombinant protein PD-L1-His. The assay can be described thus: SPR (Biacore), single concentration 1.5 µg/mL, PDL1-His captured on CM5 chip. (SPR reads the build-up and loss of mass on a sensor chip optically.)
T2 sequence (Q9NZQ7 19-238 limits assumed): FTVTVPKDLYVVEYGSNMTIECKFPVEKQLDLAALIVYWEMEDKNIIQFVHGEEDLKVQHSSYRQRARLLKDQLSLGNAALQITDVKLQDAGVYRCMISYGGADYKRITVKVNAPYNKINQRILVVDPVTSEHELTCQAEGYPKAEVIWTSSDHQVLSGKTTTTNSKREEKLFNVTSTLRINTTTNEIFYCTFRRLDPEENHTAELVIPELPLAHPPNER
In assay [4] the target is T3, human PD-L1 expressed on Raji cells (human, UniProt Q9NZQ7).
T3 construct: whole, on cells; also called Raji-PDL1; PDL1 protein expressed on Raji cells
Kind of assay: flow cytometry on Raji cells expressing human PD-L1. A general note: Flow cytometry measures light scatter and fluorescence of single cells or particles in a stream.

T1 sequence (G7PSE7 entry or part of it limits assumed, form in doubt): as the sequence (Q9NZQ7 19-238 limits assumed) above, with A33T, A34S, S62N, R68Q, Q82R, F173L, T185A, T192I, H215L counted along it

B1: NbPDL1-13-Fc fusion protein (Fc fusion)
chain: QVQLQESGGGLVQPGGSLRLSCAASGFTFSTSFVSWVRQAPGKGLEWVSRISPGGASTSYADSVKGRFTISRDNAENTLYLQMNSLKPEDTALYYCAREIYSGRFSGFDYWGQGTQVTVSS[skipping human IgG1 Fc]
notes: VHH gene cloned into pcDNA3.1(+) harboring human Fc
For the molecule B1, the concentration for a half-maximal effect (EC50) – broadly, the concentration giving half of the maximal effect – in assay [1] was 5.1 µg/mL. In assay [2], the EC50 was found to be 0.0121 µg/mL. Moreover, in assay [3], the “Binding value (60s)RU” value came out at 112 RU, the Dissociation percentage% is 46.1%, the “Dissociation value (120s)RU” value was -51.8 RU and the “Parameter for evaluating binding activity” value (“Parameter” below) stood at 2.4.

B2: Fc-containing KN035 (Fc fusion)
chain: QVQLVESGGGLVQPGGSLRLSCAASGKMSSRRCMAWFRQAPGKERERVAKLLTTSGSTYLADSVKGRFTISRDNSKNTVYLQMNSLRAEDTAVYYCAADSFEDPTCTLVTSSGAFQYWGQGTLVTVSS[skipping human IgG1 Fc with C220S D265A P331G (EU numbers)]
notes: positive control anti-PD-L1 single-domain antibody Fc fusion; also called KN035-Fc
In the case of B2, the half-maximal effective concentration (EC50) was determined as 0.0419 µg/mL in assay [2] and 0.139 µg/mL in assay [4].

B3: NbPDL1-1-Fc fusion protein (Fc fusion)
chain: QVQLQESGGGLVQPGGSLTLSCAASGFTVSNSAVSWARQAPGKGLEWVSLIDSNRNTVYAQSVRGRFTISRDNVKNTVYLQMNSLKPEDTAVYYCAKGIWGSTLTGQGTQVTVSS[skipping human IgG1 Fc]
notes: VHH gene cloned into pcDNA3.1(+) harboring human Fc, expressed in 293-F
Turning to B3, a half-maximal effect in assay [1] (EC50) was put at 0.0163 µg/mL. The EC50 in assay [2] was 0.0124 µg/mL. In addition, in assay [3], the “Binding value (60s)RU” value came out at 83.1 RU, the Dissociation percentage% stood at 10.1%, the “Dissociation value (120s)RU” value was -8.4 RU and the “Parameter” value is 8.2. In assay [4], this molecule returned an EC50 of 0.204 µg/mL.

B4: NbPDL1-3-Fc fusion protein (Fc fusion)
chain: QVQLQESGGGLVQPGGSLRLSCAGSGSIFRITPVAWYRQAPEKQRELVAVITDNGSTDYGDFVKGRFTISRDNAKNTVYLQMNSLKPEDTAVYYCNSRARPVRWTWGQGTQVTVSS[skipping human IgG1 Fc]
notes: as for B1
The molecule B4 came in with an EC50 in assay [1] of 0.00966 µg/mL. For the same molecule, the half-maximal effective concentration (EC50) in assay [2] is 0.0111 µg/mL. In assay [3], the “Binding value (60s)RU” value came to 106 RU, the Dissociation percentage% was 8.3%, the “Dissociation value (120s)RU” value was -8.8 RU and the “Parameter” value was 12.7. The molecule further yielded a concentration for a half-maximal effect (EC50) in assay [4] of 0.197 µg/mL.

B5: NbPDL1-14-Fc (Fc fusion)
chain: QVQLQESGGGLVQPGGSLRLSCAASGIISDINMVAWYRQAPGKQRELVAKIFRGGSTYYTDFVKGRFTISRENAKNTVYLQMNSLKPDDTAVYYCNARIQIRADRDYSDYWGQGTQVTVSS[skipping human IgG1 Fc]
Turning to B5, the midpoint of the response in assay [1], the EC50, lay at 31.9 µg/mL.
